Structures are written as SMILES. Among all 310,000 compounds or so, about 14,000 (4.5%) showed an effect of 50% or more. The effect is printed as a negative number. This is one part of the list.
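Further: peak tail current of the secondary pulse compared with the same well before compound.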

Sequence of human ether-à-go-go-related gene (hERG) potassium channel (Q12809 whole entry, looked up): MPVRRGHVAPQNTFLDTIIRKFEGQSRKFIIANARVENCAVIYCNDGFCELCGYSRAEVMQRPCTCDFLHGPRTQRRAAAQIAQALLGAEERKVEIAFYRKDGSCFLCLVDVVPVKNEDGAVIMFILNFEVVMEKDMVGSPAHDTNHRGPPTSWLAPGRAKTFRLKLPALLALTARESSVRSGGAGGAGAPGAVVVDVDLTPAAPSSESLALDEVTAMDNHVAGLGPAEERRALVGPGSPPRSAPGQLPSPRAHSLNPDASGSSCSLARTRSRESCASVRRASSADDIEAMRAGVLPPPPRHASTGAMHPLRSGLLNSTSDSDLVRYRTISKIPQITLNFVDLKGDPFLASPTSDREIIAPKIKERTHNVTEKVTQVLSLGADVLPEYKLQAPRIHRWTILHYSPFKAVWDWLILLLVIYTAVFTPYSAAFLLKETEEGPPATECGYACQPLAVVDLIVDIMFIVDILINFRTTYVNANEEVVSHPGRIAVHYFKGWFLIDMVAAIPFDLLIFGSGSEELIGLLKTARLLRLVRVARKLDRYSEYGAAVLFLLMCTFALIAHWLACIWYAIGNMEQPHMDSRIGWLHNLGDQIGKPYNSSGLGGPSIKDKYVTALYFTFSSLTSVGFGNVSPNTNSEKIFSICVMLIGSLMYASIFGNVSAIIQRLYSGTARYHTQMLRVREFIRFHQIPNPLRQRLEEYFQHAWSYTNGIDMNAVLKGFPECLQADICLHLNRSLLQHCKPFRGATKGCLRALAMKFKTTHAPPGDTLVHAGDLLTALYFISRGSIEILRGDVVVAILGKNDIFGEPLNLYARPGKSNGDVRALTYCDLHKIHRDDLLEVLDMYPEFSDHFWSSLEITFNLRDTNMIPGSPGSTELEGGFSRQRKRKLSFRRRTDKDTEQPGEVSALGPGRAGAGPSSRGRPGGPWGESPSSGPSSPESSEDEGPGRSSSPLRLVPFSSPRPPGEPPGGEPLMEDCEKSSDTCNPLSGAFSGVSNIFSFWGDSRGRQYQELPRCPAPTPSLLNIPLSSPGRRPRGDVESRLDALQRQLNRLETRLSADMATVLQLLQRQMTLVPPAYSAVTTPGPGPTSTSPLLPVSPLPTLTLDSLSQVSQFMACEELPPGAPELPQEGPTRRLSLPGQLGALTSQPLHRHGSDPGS

The experiment has as its target human ether-à-go-go-related gene (hERG) potassium channel (human, UniProt Q12809). The experiment can be described thus: primary screen, population patch clamp on CHO cells stably expressing hERG.
In the case of `c1csc(-c2ccc3ccccc3n2)c1`, the “hERG current change (%, negative = inhibition) at 10uM” value worked out at 13.5%. As for `NS(=O)(=O)c1ccc(CNC(=S)Nc2ccc(F)c(Cl)c2)cc1`, the figure is 33.9%; as for `NC(=O)[C@@H]1CCCNc2c(I)cc([N+](=O)[O-])cc2C(=O)N[C@@H](CO)C(=O)N[C@@H](Cc2ccc(O)cc2)C(=O)N1`, 16.5%. As for `CCN(CC)S(=O)(=O)c1ccc(C(=O)NCC(=O)N/N=C/c2ccccc2OC)cc1`, the figure is -20.2%.

Take `Cc1ccc(NC(=O)CCNS(=O)(=O)c2ccc3[nH]c(=O)oc3c2)cc1F`: the “hERG current change (%, negative = inhibition) at 10uM” value is reported as 10.2%.

With `Cc1nc(Nc2cccc(Cl)c2)c2oc3ccccc3c2n1.Cl`, the “hERG current change (%, negative = inhibition) at 10uM” value amounted to 11.1%. As for `COc1ccc(C(=O)n2nc(C)c(Br)c2C)cc1`, the figure is 16%; as for `Cc1nc(NC(=O)c2ccc(F)cc2)sc1C(=O)Nc1ccc2c(c1)CCC2`, 13.1%; as for `CCCCCNc1nc(NCCCO)c(C#N)c2c1CN(C)CC2`, -75.2%.

As for `Oc1ccc2ccccc2c1CN1CCN(c2ccccc2)CC1`, the “hERG current change (%, negative = inhibition) at 10uM” value amounted to 13.2%. `CCC(=O)N1CCC2(CC1)Oc1ccc(F)cc1C(=O)C21CC(c2ccccc2)=NO1` (stereo not drawn): the “hERG current change (%, negative = inhibition) at 10uM” value is on record as -21.3%. As for `CCOc1ccc(N2CC(C(=O)Nc3ccccc3N3CCCC3)CC2=O)cc1` (stereo not drawn), the figure is -44.3%; as for `Cc1ccc(-c2cc(-c3ccccc3)no2)cc1`, 15.5%. The same measure for `Cc1cccc(NCC(=O)N/N=C/c2cccc(Br)c2)c1`: -7.92%. The same measure for `C=CCN(CC=C)C(=O)c1cc(Cl)ccc1[N+](=O)[O-]`: -2.88%; for `Cc1ccc(S(=O)(=O)N2CC3(C)CN(S(=O)(=O)c4ccc(C)cc4)CC(C)(C2)C3=O)cc1`: 14.4%; for `Cc1cccc(/C(N)=N/OC(=O)c2ccc(F)cc2)c1`: -0.87%. Take `O=C(O/N=C1\CCS(=O)(=O)c2sccc21)C1CC1`: the “hERG current change (%, negative = inhibition) at 10uM” value is 14.8%. As for `NNc1nc2ccc(Cl)cc2s1`, the figure is -8.65%; as for `O=C(NCc1ccc(Cl)cc1)C1CCN(S(=O)(=O)c2ccccc2)CC1`, 13%; as for `C[C@]12CCC3[C@@H](CCC4=CC(=O)CC[C@@]43C=O)C1CCC2=O` (stereo partly drawn), 12%. The same measure for `COc1cc2c(cc1OC)C1=C(C#N)CN(C3CCCCC3)CN1CC2`: -2.97%. Regarding `C/C(=N\NC(=O)Cc1c(F)cccc1Cl)c1cccnc1`, the “hERG current change (%, negative = inhibition) at 10uM” value is given as 19.5%.

Consider `O=C(NCC(c1ccco1)N1CCc2ccccc2C1)c1ccccc1` (stereo not drawn), for which the “hERG current change (%, negative = inhibition) at 10uM” value is on record as -19%. As for `Cc1ccc2oc(=O)c(-c3ccc(O)cc3)c(C)c2c1`, the figure is 11.8%. Regarding `Cc1ccc(CNC(=O)CN2C(=O)NC(C)(c3ccccc3Cl)C2=O)cc1` (stereo not drawn), the “hERG current change (%, negative = inhibition) at 10uM” value is recorded as 12.1%. The same measure for `O=C1Nc2ccc(Br)cc2/C1=N/N=C/C1=C(N2CCOCC2)C(=C\c2ccccc2)/CC1`: 8.49%; for `Cc1ccc(N2C(=O)CS(=O)C(c3ccccc3)C2=O)cc1C` (stereo not drawn): 15.9%. On to `CCN(CC(=O)Nc1c(F)cccc1F)C(=O)CNC(=O)c1sc2ccccc2c1Cl`, for which the “hERG current change (%, negative = inhibition) at 10uM” value came to 16.3%. The same measure for `Cc1cc(Nc2ccccc2)c2c([N+](=O)[O-])cc(C)c(C)c2n1`: -9.29%; for `CCC1CCCN1Cn1cnc2c([nH]c3ccc(C)cc32)c1=O` (stereo not drawn): -67.1%; for `COc1ccc(-c2c(NC(=O)c3ccco3)oc3c(C)cccc3c2=O)cc1`: 0.789%. Take `COc1ccc(C(=O)OCC(=O)NC2CC2)cc1S(=O)(=O)N1CCOCC1`: the “hERG current change (%, negative = inhibition) at 10uM” value is reported as 9.9%.

In the case of `CCn1c(C)c(C)c2cc(C(=O)NCCCN3CCOCC3)ccc21`, the “hERG current change (%, negative = inhibition) at 10uM” value was -0.854%. As for `CNS(=O)(=O)c1cc(Br)ccc1S(=O)c1ccccc1C(=O)O` (stereo not drawn), the “hERG current change (%, negative = inhibition) at 10uM” value is recorded as 32.2%. As for `CCOc1ccc(NC(=O)CN(C)C(=O)c2sc3ccccc3c2Cl)cc1OCC`, the figure is -3.01%; as for `Cc1ccc(C(CC(=O)O)Nc2nc(N3CCCCC3)nc(N3CCCCC3)n2)cc1` (stereo not drawn), -1.53%. As for `CCOC(=O)C1=C(C)Nc2nnnn2C1c1cccnc1` (stereo not drawn), the figure is 17.4%; as for `COc1ccc(CNC(=O)C2CCC(CNS(=O)(=O)c3cccs3)CC2)cc1` (stereo not drawn), -18.9%. The same measure for `CC1CCN(CCCNC(=O)c2nn(C)c3c2CS(=O)(=O)c2ccccc2-3)CC1`: -23.6%; for `Cc1cc(C)c2[nH]c(O)c(N=NC(=S)NCC3CCCO3)c2c1` (stereo not drawn): -0.911%; for `CC(C(=O)c1cn(C)c2ccccc12)c1ccccc1` (stereo not drawn): 19.5%. With `COc1ccc(NC(=O)[C@H](C)NC(N)=O)cc1S(=O)(=O)Nc1cc(C)ccc1Br`, the “hERG current change (%, negative = inhibition) at 10uM” value is 3.07%.

`COc1ccc(CCNC(=O)C2CCN(S(=O)(=O)c3ccc(OC)c(OC)c3)CC2)cc1OC`: the “hERG current change (%, negative = inhibition) at 10uM” value was 7.84%. The same measure for `Cc1ccccc1NC(=O)CCC(=O)N/N=C/c1ccc(F)cc1`: 30%; for `CC1=Nc2cc(Cl)ccc2Oc2ccccc21`: 12.7%; for `Cn1c(=O)n(Cc2ccccc2F)c2ccccc21`: -16.3%.

Turning to `CN(C)c1ccc(C(O)Cc2nc3ccccc3n2C)cc1` (stereo not drawn), the “hERG current change (%, negative = inhibition) at 10uM” value is reported as 3.73%.

Consider `CCn1cc(/C=N\NC(=O)c2cc(-c3ccccc3OC)nc3ccccc23)c(C)n1`, for which the “hERG current change (%, negative = inhibition) at 10uM” value is given as -2.18%.

As to `O=C(CNS(=O)(=O)c1c(Cl)cccc1Cl)N1CCCCCC1`, the “hERG current change (%, negative = inhibition) at 10uM” value is reported as 3.79%. The same measure for `Cc1ccc(SCCC(=O)OCC(=O)Nc2ccc(S(N)(=O)=O)cc2)cc1`: 15.1%. For `CC1(C)CC(=O)N(c2ccc(Cl)c(Cl)c2)C(=O)C1`, the “hERG current change (%, negative = inhibition) at 10uM” value came out at 7.72%. The same measure for `CC(=O)Nc1cccc(NC(=O)c2c(-c3ccccc3Cl)noc2C)c1`: -25.9%; for `Cc1ccc(S(=O)(=O)NNC(=O)C(=O)NNS(=O)(=O)c2ccc(C)cc2)cc1`: -1.99%; for `COc1ccccc1-c1ccc2nnc(SC)n2n1`: 12.5%.

Take `CC1(C)Cc2nc3sc4c(=O)n(CC(=O)NCc5ccccc5)cnc4c3cc2CO1`: the “hERG current change (%, negative = inhibition) at 10uM” value is reported as 1.01%. Take `COc1ccc(NC(=O)C(=O)NCC(c2ccco2)N2CCc3ccccc32)cc1` (stereo not drawn): the “hERG current change (%, negative = inhibition) at 10uM” value was determined as 8.32%. As for `Cc1nc2nc(C)c(NS(=O)(=O)c3ccc(C(C)(C)C)cc3)c(=O)n2[nH]1`, the figure is 13.6%; as for `COc1ccc(C(=O)NCc2nnc(SC)n2C2CCCCC2)cc1`, -6.63%. As for `O=C1CN=C(c2ccccc2)c2ccccc2N1`, the figure is 8.11%; as for `CC1CCCCN1C(=O)COC(=O)c1ccc(=O)n(Cc2ccccc2)n1` (stereo not drawn), -0.118%.

Turning to `CSc1cccc(NC(=S)N(CCCN2CCCC2)Cc2cccs2)c1`, the “hERG current change (%, negative = inhibition) at 10uM” value is recorded as -63.7%.

Turning to `COc1ccccc1N1CCN(C(=O)c2ccc3nc(-c4ccco4)c(-c4ccco4)nc3c2)CC1`, the “hERG current change (%, negative = inhibition) at 10uM” value is on record as -15%.

Turning to `CCCCc1ccc(N=N/C(C(=O)Nc2ccc(NC(C)=O)cc2OC)=C(/C)O)cc1`, the “hERG current change (%, negative = inhibition) at 10uM” value is listed as -50.2%. The same measure for `CCOC(=O)Cc1csc(NC(=O)c2cccc(N3C(=O)CCC3=O)c2)n1`: -13.5%; for `O=C1CC2(CCN(C(=O)C(=O)c3c[nH]c4ccccc34)CC2)Oc2ccccc21`: -55.3%. The same measure for `N#Cc1ccc(/C=C/C(=O)c2ccco2)cc1`: 1.68%.

`C=CCc1cc(Cl)ccc1OCCCn1ccnc1.O=C(O)C(=O)O`: the “hERG current change (%, negative = inhibition) at 10uM” value is listed as -13.9%.

As to `COc1ccc(-c2nc(SCC(=O)N(CC(C)C)c3c(N)n(Cc4ccccc4)c(=O)[nH]c3=O)n[nH]2)cc1`, the “hERG current change (%, negative = inhibition) at 10uM” value is -6.02%. The same measure for `CCCC/C=C/C(NC(=O)CCc1ccccc1)c1ccccc1` (stereo not drawn): -22.7%; for `O=C(N/N=C/c1cc2c(cc1[N+](=O)[O-])OCO2)c1ccccn1`: 12%; for `COc1ccc(N2C(=O)c3cccc4cc(Br)cc(c34)C2=O)cc1`: 10.3%. The same measure for `CCOc1ccccc1CNC(=O)C1CCN(c2nn3c(=O)cc(C)nc3s2)CC1`: -15.8%. The same measure for `CCNC(=O)COn1c(SCC(=O)NCC)nc2ccccc2c1=O`: 12.5%. Regarding `COc1ccc(/C=N/NC(=O)c2ccc3c(c2)OCCO3)c(OC)c1`, the “hERG current change (%, negative = inhibition) at 10uM” value is on record as 6.14%. As for `N#C/C(=C\c1ccncc1)c1nc2ccccc2o1`, the figure is -3.35%. For `COC(=O)COc1ccc(/C=N/NS(=O)(=O)c2ccccc2)cc1`, the “hERG current change (%, negative = inhibition) at 10uM” value is 6.72%.

On to `Cc1ccc(SCCCCN2CCNCC2)cc1.O=C(O)C(=O)O`, for which the “hERG current change (%, negative = inhibition) at 10uM” value is listed as -18.2%. As for `COc1ccc2ccc3c(c2c1)N=C[C@]1(O3)N(C)c2ccccc2C1(C)C`, the “hERG current change (%, negative = inhibition) at 10uM” value is recorded as -9.8%. Regarding `CCOCCCn1c(SCc2ccccc2)nnc1-c1ccncc1`, the “hERG current change (%, negative = inhibition) at 10uM” value is -14.1%. As for `Cc1ccc(-c2nnn(CC(=O)N(CC3CCCO3)C(C(=O)NC3CCCC3)c3ccc(F)cc3)n2)o1` (stereo not drawn), the figure is 8.83%; as for `O=C(/C=C/c1cccs1)Nc1ccc(S(=O)(=O)Nc2ncccn2)cc1`, 20.2%; as for `CCCCN(C(=O)c1ccc(S(=O)(=O)N2CCOCC2)cc1)C1CCS(=O)(=O)C1` (stereo not drawn), -15.2%. The same measure for `O=C(Nc1ccsc1C(=O)O)c1ccccc1Cl`: 19.2%; for `Cn1cccc1/C=N\NC(=O)Cc1ccc(Br)c2ccccc12`: -20.6%; for `C/C(=N/NC(=O)CNC(=O)c1cccnc1)c1ccco1`: 32%. As for `COc1ccc(CCN(C(=O)C(F)(F)F)C(C(=O)NC2CCCCC2)c2cccs2)cc1` (stereo not drawn), the figure is 15.8%.

For the origin of these results see PMC4336329 (PLoS ONE, 2015).
